# Assay results published in the antibiotic and cytotoxicity screens of Wong et al. (2023).
# The other results are listed elsewhere or left out.
# Tests used:
# HSkMC = human skeletal muscle cells; assay: cytotoxicity call (relative viability < 0.9); conditions: 10 µM
# HepG2 = assay: cytotoxicity call (relative viability < 0.9); conditions: 10 µM
# S. aureus RN4220 = assay: growth inhibition call (relative growth <= 0.2); conditions: 50 µM
Compound,cytotoxicity call (HSkMC),cytotoxicity call (HepG2),growth inhibition call (S. aureus RN4220)
COc1cccc(C(=O)Nc2ccc3c(c2)C(=O)N(C)[C@@H]2CC[C@@H](CC(=O)NCC4CC4)O[C@H]2CO3)c1,inactive,inactive,inactive
Cc1ccc2nncn2n1,inactive,inactive,inactive
COc1ccc(NC(=O)Nc2ccc3c(c2)C(=O)N([C@@H](C)CO)C[C@H](C)[C@@H](CN(C)S(=O)(=O)c2cccs2)OCCCC[C@@H](C)O3)cc1,inactive,active,inactive
COc1ccc(S(=O)(=O)Nc2ccc3c(c2)C(=O)N([C@@H](C)CO)C[C@@H](C)[C@@H](CN(C)C(=O)Nc2ccccc2)OCCCC[C@@H](C)O3)cc1,inactive,inactive,inactive
C[C@H](CO)N1C[C@H](C)[C@@H](CN(C)S(=O)(=O)c2ccc(F)cc2)Oc2c(NS(=O)(=O)c3ccccc3)cccc2C1=O,inactive,inactive,inactive
C[C@H](CO)N1C[C@H](C)[C@H](CN(C)C(=O)Nc2ccc(F)cc2)OCCCC[C@H](C)Oc2ccc(NC(=O)Nc3ccc(C(F)(F)F)cc3)cc2C1=O,inactive,inactive,inactive
CN1CCN(C(=O)C[C@@H]2CC[C@H]3[C@@H](COC[C@H](O)CN3C(=O)Nc3ccc4c(c3)OCO4)O2)CC1,inactive,inactive,inactive
COc1ccc(S(=O)(=O)Nc2ccc3c(c2)CC(=O)N([C@@H](C)CO)C[C@H](C)[C@H](CN(C)S(=O)(=O)c2c(C)noc2C)O3)cc1,inactive,inactive,inactive
Cc1noc(C)c1S(=O)(=O)N(C)C[C@H]1Oc2ccc(NC(=O)Cn3cnnn3)cc2CC(=O)N([C@@H](C)CO)C[C@@H]1C,inactive,inactive,inactive
C[C@H]1CCCCO[C@@H](CN(C)C(=O)Nc2ccc(C(F)(F)F)cc2)[C@@H](C)CN([C@@H](C)CO)C(=O)c2cc(NS(=O)(=O)c3ccc(Cl)cc3)ccc2O1,inactive,inactive,inactive
C[C@@H]1CCCCO[C@@H](CN(C)C(=O)NC2CCCCC2)[C@@H](C)CN([C@@H](C)CO)C(=O)c2cc(NS(=O)(=O)c3ccc(F)cc3)ccc2O1,inactive,inactive,inactive
O=C(CCCCCNC(=O)OCCCOc1ccc(C2=N[C@]3(Cc4ccccc4)C(=O)N(Cc4ccccc4)Cc4ccccc4[C@@H]3O2)cc1)NO,inactive,inactive,inactive
CCCN(C)C[C@H]1Oc2cc(C#Cc3ccccc3OC)ccc2S(=O)(=O)N([C@H](C)CO)C[C@H]1C,inactive,inactive,inactive
C[C@H]1CN([C@@H](C)CO)C(=O)CCCn2cc(nn2)CO[C@H]1CN(C)S(=O)(=O)c1cccc(C#N)c1,inactive,inactive,inactive
CC(C)NC(=O)Nc1ccc2c(c1)C(=O)N([C@@H](C)CO)C[C@H](C)[C@H](CN(C)C(=O)Nc1ccccc1)OCCCC[C@@H](C)O2,inactive,inactive,inactive
C[C@H](CO)N1C[C@H](C)[C@H](CN(C)S(=O)(=O)c2cccs2)OCCCC[C@H](C)Oc2ccc(NC(=O)CCC(F)(F)F)cc2C1=O,inactive,inactive,inactive
Cl.NC[C@H](N)C(=O)O,inactive,inactive,inactive
COc1ccc(S(=O)(=O)N(C)C[C@H]2Oc3ccc(NS(=O)(=O)c4ccc(F)cc4)cc3CC(=O)N([C@@H](C)CO)C[C@H]2C)cc1,inactive,inactive,inactive
NCc1ccc(C(=O)O)cc1,inactive,inactive,inactive
Cc1ccc(S(=O)(=O)N(C)C[C@@H]2Oc3ncc(C#Cc4cccc(F)c4)cc3C(=O)N([C@H](C)CO)C[C@@H]2C)cc1,inactive,active,inactive
C[C@@H]1CNC(=O)CO1,inactive,inactive,inactive
C[C@@H]1CCCCO[C@H](CN(C)S(=O)(=O)c2ccc(F)cc2)[C@H](C)CN([C@H](C)CO)C(=O)c2cc(NS(=O)(=O)c3cn(C)cn3)ccc2O1,inactive,inactive,inactive
CNC(=O)CN1CCO[C@H]2CN(C(=O)c3cnccn3)C[C@@H]21,inactive,inactive,inactive
CC(C)NC(=O)Nc1ccc2c(c1)C(=O)N([C@H](C)CO)C[C@H](C)[C@H](CN(C)C(=O)Nc1ccc3c(c1)OCO3)O2,inactive,inactive,inactive
O=C(C[C@H]1CC[C@H](NC(=O)CN2CCOCC2)[C@@H](CO)O1)NCCc1ccncc1,inactive,inactive,inactive
C[C@@H]1CN([C@@H](C)CO)C(=O)c2cccc(NC(=O)CCCCCC(=O)Nc3ccccc3N)c2O[C@H]1CN(C)Cc1ccc(Cl)c(Cl)c1,inactive,inactive,inactive
CCNC(=O)C[C@@H]1CC[C@@H]2[C@@H](COc3ccc(NS(=O)(=O)c4ccccc4C)cc3C(=O)N2C)O1,inactive,inactive,inactive
O=C(C[C@H]1C[C@@H]2c3cc(NS(=O)(=O)c4ccc(F)cc4)ccc3O[C@@H]2[C@@H](CO)O1)NCc1ccccc1F,inactive,inactive,inactive

Compound,cytotoxicity call (HSkMC),cytotoxicity call (HepG2),growth inhibition call (S. aureus RN4220)
O=C(C[C@H]1CC[C@@H]2[C@H](COC[C@H](O)CN2C(=O)c2ccccc2)O1)NCCCN1CCOCC1,inactive,inactive,inactive
C[C@H](CO)N1C[C@H](C)[C@H](CN(C)S(C)(=O)=O)Oc2c(NC(=O)c3cnccn3)cccc2C1=O,inactive,inactive,inactive
COc1c(O)cccc1O,inactive,inactive,inactive
COC(=O)C1=CO[C@@H](O[C@@H]2O[C@H](CO)[C@@H](O)[C@H](O)[C@H]2O)[C@@H]2[C@@](C)(O)[C@@H](OC(=O)/C=C/c3ccc(OC)c(OC)c3)C[C@]12O,inactive,inactive,inactive
CC1(C)[C@H](C(N)=O)CC[C@@]1(C)C(=O)O,inactive,inactive,inactive
COCC#Cc1ccc2c(c1)O[C@@H](CN(C)S(C)(=O)=O)[C@@H](C)CN([C@@H](C)CO)S2(=O)=O,inactive,inactive,inactive
C[C@@H]1CN([C@@H](C)CO)C(=O)c2cc(C#Cc3ccccc3)cnc2O[C@@H]1CN(C)C(=O)CCN1CCCCC1,inactive,inactive,inactive
C[C@@H]1CCCCO[C@@H](CN(C)C(=O)Nc2cccc3ccccc23)[C@H](C)CN([C@@H](C)CO)C(=O)c2cc(NC(=O)NC3CCCCC3)ccc2O1,inactive,inactive,inactive
C[C@H]1CN([C@@H](C)CO)C(=O)Cc2cc(NC(=O)Cn3cnnn3)ccc2O[C@@H]1CN(C)C(=O)Nc1ccccc1,inactive,inactive,inactive
O=C(C[C@H]1C[C@H]2c3cc(NS(=O)(=O)c4ccc(F)cc4)ccc3O[C@H]2[C@@H](CO)O1)NCc1cccc(F)c1,inactive,inactive,inactive
C[C@@H]1CCCCO[C@H](CN(C)C(=O)CCC(F)(F)F)[C@@H](C)CN([C@H](C)CO)C(=O)c2cc(NC(=O)NC3CCCCC3)ccc2O1,inactive,inactive,inactive
C[C@@H]1CN([C@@H](C)CO)S(=O)(=O)c2ccc(Br)cc2O[C@H]1CN(C)S(=O)(=O)c1cccc(F)c1,inactive,inactive,inactive
C[C@H]1CCCCO[C@H](CN(C)Cc2ccccc2)[C@@H](C)CN([C@@H](C)CO)C(=O)c2cc(NC(=O)Nc3ccc(C(F)(F)F)cc3)ccc2O1,active,active,inactive
C[C@@H]1CN([C@@H](C)CO)C(=O)c2cccc(NC(=O)Nc3cccc4ccccc34)c2O[C@@H]1CN(C)Cc1ccc(C(=O)Nc2ccccc2N)cc1,inactive,inactive,inactive
C[C@@H]1CN([C@@H](C)CO)C(=O)c2cc(NC(=O)Nc3ccc(C(F)(F)F)cc3)ccc2O[C@@H]1CN(C)C(=O)Nc1ccc(F)cc1,active,active,inactive
COc1cc(C=CC(=O)N2CCC=CC2=O)cc(OC)c1OC,active,active,inactive
C[C@H](CO)N1C[C@H](C)[C@@H](CN(C)Cc2ccc3c(c2)OCO3)OCCCC[C@H](C)Oc2ccc(NC(=O)Nc3ccccc3)cc2C1=O,inactive,inactive,inactive
COc1ccc(S(=O)(=O)N[C@@H]2CC[C@H](CC(=O)N3CCN(c4ccccc4)CC3)O[C@@H]2CO)cc1,inactive,inactive,inactive
C[C@H](CO)N1C[C@H](C)[C@H](CN(C)C(=O)Nc2cccc3ccccc23)Oc2ccc(NC(=O)C3CCCCC3)cc2CC1=O,inactive,active,inactive
COc1ccc(-c2cnc3c(c2)C(=O)N([C@H](C)CO)C[C@H](C)[C@H](CN(C)C(=O)Nc2cccc4ccccc24)O3)cc1,inactive,inactive,inactive
COc1ccc(S(=O)(=O)Nc2ccc3c(c2)C(=O)N([C@@H](C)CO)C[C@H](C)[C@@H](CN(C)Cc2ccc(Cl)c(Cl)c2)OCCCC[C@H](C)O3)cc1,inactive,active,inactive
C[C@@H]1CCCCO[C@H](CN(C)Cc2ccncc2)[C@@H](C)CN([C@H](C)CO)C(=O)c2cc(NC(=O)Nc3cccc4ccccc34)ccc2O1,inactive,inactive,inactive
c1ccc(-c2ccnc(-c3cc(-c4ccccc4)ccn3)c2)cc1,inactive,inactive,inactive
COc1ccc(-c2cnc3c(c2)C(=O)N([C@H](C)CO)C[C@H](C)[C@H](CN(C)S(=O)(=O)c2ccc(OC)cc2)O3)cc1,inactive,inactive,inactive
C[C@H](CO)N1C[C@H](C)[C@H](CN(C)C(=O)NC2CCCC2)Oc2cc(-c3cccnc3)ccc2S1(=O)=O,inactive,inactive,inactive
CN(C)CC#Cc1ccc([C@H]2[C@@H](CO)N3CCCCN(C(=O)CN(C)C)C[C@@H]23)cc1,inactive,inactive,inactive
C[C@@H]1CCCCO[C@H](CN(C)C(=O)C2CCCCC2)[C@@H](C)CN([C@@H](C)CO)C(=O)c2cc(NS(=O)(=O)c3ccc(F)cc3)ccc2O1,inactive,inactive,inactive
